Results from PubChem BioAssay AID504332 (National Center for Advancing Translational Sciences (NCATS), 2011).
Hit rate of the full screen: of about 350,000 compounds, about 31,000 (8.9%) were called active. The shares of active, inactive and inconclusive entries below differ from those in the screen. Calls come from the whole dose curve; as a rule, active = well fitted inhibition curve with a large enough effect; inconclusive = small, poorly fitted or top-dose-only effect; inactive = no such curve, though single readings can be large or run the other way. A potency beside an inconclusive call is a rough fit, not a confirmed value.

target: Histone-lysine N-methyltransferase EHMT2 (Homo sapiens) (UniProt Q96KQ7); test: qHTS Assay for Inhibitors of Histone Lysine Methyltransferase G9a; settings: G9a H3K9 monomethylation, AlphaScreen, 2 h; activity, negative = inhibition: at 59 µM (top of the series) unless noted; note: nearly all actives have a fitted effect of over 75% in size
Method in brief: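 AlphaScreen detection with an anti-monomethyl H3K9 antibody quantified product after a 2 h room-temperature reaction containing 500 nM biotinylated H3K9 peptide, 20 µM SAM and 20 nM enzyme, which had been preincubated 15 min with compound.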
% is set by controls: 0 for no effect and ±100 for the full control effect; potency is the fitted concentration of half-maximal effect; tags give direction and shape of the fitted curve.

UniProt Q96KQ7, sequence (Q96KQ7 whole entry, looked up): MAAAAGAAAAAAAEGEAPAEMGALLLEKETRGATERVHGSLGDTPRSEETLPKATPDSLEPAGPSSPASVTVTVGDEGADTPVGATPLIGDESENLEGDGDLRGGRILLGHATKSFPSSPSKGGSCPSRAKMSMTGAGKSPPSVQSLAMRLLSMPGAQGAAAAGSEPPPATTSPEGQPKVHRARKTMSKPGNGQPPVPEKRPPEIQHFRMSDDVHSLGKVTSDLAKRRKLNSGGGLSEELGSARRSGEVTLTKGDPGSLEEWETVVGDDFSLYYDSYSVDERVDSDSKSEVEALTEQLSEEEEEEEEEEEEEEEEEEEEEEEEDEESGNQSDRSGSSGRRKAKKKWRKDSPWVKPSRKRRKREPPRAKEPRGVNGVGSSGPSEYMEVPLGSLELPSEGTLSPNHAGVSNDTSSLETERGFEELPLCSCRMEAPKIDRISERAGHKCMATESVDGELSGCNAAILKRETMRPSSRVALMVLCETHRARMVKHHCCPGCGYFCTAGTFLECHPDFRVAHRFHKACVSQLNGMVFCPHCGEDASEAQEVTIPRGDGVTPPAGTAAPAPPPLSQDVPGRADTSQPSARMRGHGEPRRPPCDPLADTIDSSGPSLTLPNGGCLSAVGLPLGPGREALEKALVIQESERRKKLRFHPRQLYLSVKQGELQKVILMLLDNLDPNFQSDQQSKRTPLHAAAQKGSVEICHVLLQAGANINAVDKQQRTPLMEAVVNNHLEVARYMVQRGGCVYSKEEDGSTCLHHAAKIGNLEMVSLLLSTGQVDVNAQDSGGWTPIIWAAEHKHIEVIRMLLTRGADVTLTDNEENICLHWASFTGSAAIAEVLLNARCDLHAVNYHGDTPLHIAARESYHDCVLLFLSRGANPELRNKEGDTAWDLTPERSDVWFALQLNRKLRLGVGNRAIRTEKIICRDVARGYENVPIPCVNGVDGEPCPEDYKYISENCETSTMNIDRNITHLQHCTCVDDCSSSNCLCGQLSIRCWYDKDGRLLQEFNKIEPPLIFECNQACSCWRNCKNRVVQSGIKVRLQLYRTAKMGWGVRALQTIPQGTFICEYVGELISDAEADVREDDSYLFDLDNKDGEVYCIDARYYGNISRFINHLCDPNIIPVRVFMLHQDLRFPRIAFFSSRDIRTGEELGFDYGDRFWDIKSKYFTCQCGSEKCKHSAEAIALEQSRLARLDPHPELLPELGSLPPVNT

Row | SMILES | Potency | activity, negative = inhibition
1 | Cc1cc(C)nc(NS(=O)(=O)c2ccc(NC(=O)CSc3nc4ccccc4[nH]3)cc2)n1 | inconclusive: 25.1 µM [inhibitor, partial curve, poor fit] | 
2 | NC(=S)Nn1c(-c2ccccc2)nc2ccccc2c1=O | inconclusive: 28.2 µM [inhibitor, single point] | 
3 | COc1ccc(C2=NN(c3nc(C(=O)O)cs3)C(O)(C(F)(F)F)C2)c(OC)c1 (stereo not drawn) |  | inactive: -27.7% [at 102 µM]
4 | Fc1cccc(NCc2ccoc2)c1 | active: 39.8 µM | 
5 | O=C(O)/C=C/C(=O)Nc1ccc(Cl)cc1C(=O)c1ccccc1 | active: 31.6 µM | 
6 | Cc1cc(-c2ccco2)n(CC(=O)NCc2ccco2)n1 | active: 50.1 µM | 
7 | Cc1cc(C)c2c(=O)n(CC(=O)N3CCC(Cc4ccccc4)CC3)sc2n1 | active: 1.58 µM | 
8 | CN1CCN(c2ncc3nc(-c4cccs4)c(=O)n(CCC#N)c3n2)CC1 |  | inactive: 10.6% [at 0.501 µM]
9 | OCCCNc1ncnc2oc(-c3ccccc3)c(-c3ccccc3)c12 |  | inactive: -19.1% [at 102 µM]
10 | Cc1ccccc1S(=O)(=O)Nc1nc2ccccc2nc1N1CCc2ccccc2C1 | inconclusive: 39.8 µM [inhibitor, single point] | 
11 | CCC1CN(C(=O)N2CCC(C(=O)NCc3cc(OC)ccc3OC)CC2)c2ccccc2O1 (stereo not drawn) |  | inactive: -27.2%
12 | CCOC(=O)c1ccc(Cn2c(-c3ccccc3)nnc2-c2ccccc2)o1 |  | inactive: 13.1%
13 | C=CCNc1nc(=S)[nH]c2cc(OC)c(OC)cc12 | active: 25.1 µM | 
14 | COc1ccc(CN2CCNC(=O)C2CC(=O)N(C)CCC2CCOCC2)cc1OC (stereo not drawn) | active: 70.8 µM | 
15 | O=[N+]([O-])c1ccc(Cl)c(S(=O)(=O)n2ccnc2)c1 | inconclusive: 79.4 µM [inhibitor, single point] | 
16 | O=C(Cc1c(F)cccc1Cl)OCN1C(=O)c2ccccc2C1=O |  | inactive: 17.2% [at 102 µM]
17 | COCCn1c(C)cc(C(=O)CSc2nc(C)c(C)c(C)n2)c1C | active: 28.2 µM | 
18 | N#CCSc1nnc(Cc2ccc3c(c2)OCO3)o1 |  | inactive: 25.7% [at 102 µM]
19 | O=C(O)c1ccc(CNCc2cccc(Cl)c2)cc1 | inconclusive: 39.8 µM [inhibitor, partial curve, poor fit] | 
20 | COc1cc(-c2nc3n(n2)C(c2ccc(F)cc2)C(C(N)=O)=C(C)N3)cc(OC)c1OC (stereo not drawn) |  | inactive: -36.3%
21 | CS/C(=N\S(=O)(=O)c1ccccc1)c1ccccc1 | inconclusive: 0.794 µM [inhibitor, full curve] | 
22 | CCc1ccccc1NC(=O)COc1ccc2c(c1)OCO2 | inconclusive: 14.1 µM [inhibitor, full curve] | 
23 | CCOc1ccc(OCCCN(C)C)cc1 | inconclusive: 1.78 µM [inhibitor, partial curve, poor fit] | 
